Source: PubChem BioAssay AID493208 (National Center for Advancing Translational Sciences (NCATS), 2011)
The campaign covered roughly 44,000 compounds. About 340 (0.77%) were called active. Not shown: some 5% with an inconclusive outcome. Calls follow the shape of the dose curve; as a rule, active = well fitted inhibition curve with a large enough effect; inconclusive = small, poorly fitted or top-dose-only effect; inactive = flat fitted curve, though single readings scatter. Some of the results follow.

Assay: Acumen qHTS Assay for Inhibitors of the mTORC1 Signaling Pathway in MEF (Tsc2-/-, p53-/-) Cells: Sytravon;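 also: plate controls were DMSO for no effect and rapamycin for full effect; nearly all actives have a fitted effect of over 50% in size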
Conditions: phospho-rpS6 immunofluorescence/PI, 24 h; series mostly up to 38.3 µM; activity change, negative = inhibition: at the top concentration
Procedure, shortened: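 Read-out: phospho-S6 Alexa-488 intensity over PI intensity per well, scored as % active cells using thresholds from rapamycin (7.5 nM) and DMSO controls. Tsc2-/-, p53-/- MEFs exposed to compound for 24 h; PI cell count recorded as viability.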

Activity change, negative = inhibition, inactive:
Cc1ccc2oc(-c3ccc(C)c(NC(=O)c4ccc(C(C)(C)C)cc4)c3)nc2c1 -0.612%
Cc1ccc(-c2csc(=Nc3ccccc3)n2Cc2ccc3c(c2)OCO3)cc1C -2.78%
CCN1CCN(C(c2ccccc2)c2sc3nc(-c4ccco4)nn3c2O)CC1 (stereo unspecified) -9.13%
COc1ccc(S(=O)(=O)c2c(Nc3ccc(F)cc3)sc(C(=O)c3ccc4c(c3)OCO4)c2N)cc1 0.079%
CCOc1ccccc1C(=O)Oc1c(Sc2ccccc2)c(C)nn1C(C)(C)C 4.23%
COc1ccc(N2CCN(C(=O)c3ccc4c(c3)N(Cc3ccc(F)cc3)C(=O)c3ccccc3S4=O)CC2)cc1 (stereo unspecified) -7.96%
COc1ccccc1C(=O)n1nc(-c2ccco2)nc1NCc1ccc(Cl)cc1 3.88%
COCCc1nn2c(=O)cc(COC(=O)COc3ccc(F)cc3)nc2s1 -4.84%
COc1ccc(-c2cn3c(n2)sc2cc(C(=O)NCCCN4CCCCCC4)ccc23)cc1 2.81%
CCCOC(=O)c1c(NC(=O)C2c3ccccc3Oc3ccccc32)sc2c1CCC(C)C2 (stereo unspecified) 4.76%
CCC(O)c1cc2c(cc1NC(=O)c1cccc(Br)c1)OCCO2 (stereo unspecified) 3.69%
CN1CCN(c2oc(-c3ccc(COc4ccc(Cl)cc4)o3)nc2C#N)CC1 -4.71%
Cc1nc2ccccc2n1CCc1nc2c3ccccc3nc(SCC(=O)Nc3ccc(Br)cc3F)n2n1 -8.44%
CC(C)C12CN3CC(C(C)C)(CN(C1)C3c1ccc(Cl)cc1)C2=O (stereo unspecified) 1.43%
COc1ccc(-c2nc3ccccc3o2)cc1NC(=O)C(C)Oc1ccc(Cl)cc1Cl (stereo unspecified) -16.9%
CN(C)CCCN(C(=O)c1cccs1)c1nc2ccc(F)cc2s1 -0.986%
Cc1ccc(CNC(=O)CSc2nc(=O)[nH]c3c2CCCC3)cc1 2.22%
O=C(CN1C(=O)CCc2cc(S(=O)(=O)N3CCOCC3)ccc21)Nc1cccc(Cl)c1 0%
CCCSc1ncc(Cl)c(C(=O)N(Cc2ccc(N(C)C)cc2)C2CCS(=O)(=O)C2)n1 (stereo unspecified) -8.06%
COc1ccc(NC(=O)Cn2cnc3sc(C)c(S(=O)(=O)N4CCN(C)CC4)c3c2=O)cc1Cl -12.1%
CCOC(=O)c1ccc(N2C(=O)c3n[nH]c(C)c3C2c2ccc(C(C)(C)C)cc2)cc1 (stereo unspecified) -3.71%
CCOC(=O)CNC(=O)N1CCc2cc(S(=O)(=O)N3CCC(C)CC3)ccc21 -4.44%
Cc1ccc(NS(=O)(=O)c2ccc3c(c2)NC(=O)CCS3)cc1C -0.0233%
Cc1cccc(OC(=O)c2cc(-c3ccc4c(c3)OCCO4)on2)c1 -2.02%
CC(C)(C)OC(=O)N1CCC(c2c(C(=O)N3CCN(c4ncccn4)CC3)cnn2-c2ccccc2)CC1 -9.23%
Cc1ccccc1-n1c(/C=C/c2c(C)n(C)c3ccccc23)nc2ccccc2c1=O 9.22%
CCOC(=O)c1cccc(NC(=O)c2cc(CN3CCOCC3)on2)c1 -2.29%
CSc1ccc(CNc2ncc(-c3ccccc3)n2C)cc1 -11.4%
CCN(CC)S(=O)(=O)c1ccc(C(=O)Nc2nc3c(Cl)cc(Cl)cc3s2)cc1 0%
CCOC(=O)c1ccc(NC(=O)COCc2cc(-c3ccc4c(c3)OCO4)on2)cc1 2.32%
CC(=O)N1CCc2c(sc3c2c(=O)n(-c2ccccc2)c(=O)n3CC(=O)Nc2ccccc2C)C1 -0.871%
Cc1ccccc1S(=O)(=O)Cc1ccc(C(=O)NC2CCCCC2)o1 0.0403%
COc1ccc(NC(=O)c2oc3ccccc3c2NC(=O)c2cc3ccccc3o2)cc1 5.74%
CCOc1ccc(NS(=O)(=O)c2ccc3[nH]cc(C(=O)N(C)Cc4ccccc4)c(=O)c3c2)cc1 -2.21%
Cc1ccc(OC(=O)c2cc(-c3ccc4c(c3)OCCO4)on2)cc1C -0.558%
COc1ccc2c(c1)CC(NC(=O)Nc1c(C)cc(C)cc1C)CO2 (stereo unspecified) 9.74%
CCOc1ccc(NC(=O)CSc2nnc3scc(-c4ccc(Cl)cc4)n23)cc1 -10.9%
CCOc1cccc2cc(-c3nc4ccc(C(=O)O)cc4[nH]3)c(=O)oc12 0.502%
COc1cc2oc(=O)c(CC(=O)N3CCCCC3)c(C)c2cc1Cl 4.06%
COc1ccc(C)cc1S(=O)(=O)N1CCN(c2cccc(Cl)c2)CC1 7.12%
Cc1cccc(-n2c3nc(=O)[nH]c(=O)c-3cc3c(Cl)cccc32)c1C -18%
O=C(NCC(c1ccco1)S(=O)(=O)c1cccs1)c1ccc(F)cc1 (stereo unspecified) -5.92%
Cc1ccc(C)c(CN2C(=O)c3ccccc3S(=O)(=O)c3ccc(C(=O)N4CCCCCC4)cc32)c1 -5.09%
CCOC(=O)c1ccc2oc(=O)n(Cc3ccccc3)c2c1 0%
CC(=O)Nc1ccc(C2Sc3ccccc3NC3=C2C(=O)c2ccccc23)cc1 (stereo unspecified) 3.17%
Cc1oc2ncn(CC(C)C)c(=O)c2c1C(=O)NCCCN1CCCCC1 1.03%
O=C(COc1ccc(F)cc1)Nc1ccc2nc(SCC(=O)N3CCc4ccccc43)sc2c1 -0.58%
COc1ccccc1CNC(=O)c1ccc(N2CCCC2)c(NC(=O)NCCC(C)C)c1 6.68%
Cc1cc(C)c(NC(=O)c2cc3sc(Cl)cc3n2C)c(C)c1 -1.51%
COc1cccc(NC(=O)CSc2ncc(S(=O)(=O)c3ccc(C)c(C)c3)c(=O)[nH]2)c1 0.795%
Cc1ccccc1OCC(=O)OCc1cc(=O)n2nc(C3CCCCC3)sc2n1 0%
CC(=O)c1ccc(N2CCN(S(=O)(=O)c3ccc(-c4cc(C(F)(F)F)on4)s3)CC2)cc1 2.78%
CCc1c(-c2ccccc2)nc2ccccc2c1C(=O)NCCc1ccccc1 1.02%
CSc1cccc(NC(=O)Cn2c3ncccc3c(=O)n2-c2ccc(C)cc2)c1 -8.89%
Cc1csc2nc(COc3ccccc3NC(=O)c3ccco3)cc(=O)n12 -21.6%
COc1cc(NC(=O)CCc2nc(-c3cccs3)no2)cc(OC)c1OC -4.54%
Cc1ccc2c(=O)cc(C(=O)Nc3cccc(Cl)c3C)oc2c1C -16.2%
COc1ccc(OCCCCn2c(-c3ccc(Cl)cc3)nc3ccccc3c2=O)cc1 -0.143%
CCCCCOC(=O)CSc1ncnc2c1sc1nc(N3CCOCC3)c3c(c12)CCCC3 -0.863%
Cc1cc(Nc2cccc(C)c2C)n2cnnc2n1 -7.53%
Cn1c(=O)c2c(-c3ccccc3Cl)n(-c3cc(Cl)ccc3O)cc2n(C)c1=O 0%
COc1ccc(Nc2ncc(C(=O)N3CCN(c4cccc(Cl)c4)CC3)c3ccccc23)cc1 -17.5%
Cc1ccc(C)c(-n2c(CCC(=O)O)ccc2-c2ccc(Cl)cc2)c1 0.677%
Cc1cccc(NC(=O)CSc2nc(-c3ccccc3)cn2-c2ccccc2)c1C -17.1%
COCCn1ccc2c(OCC(=O)Nc3cccc(OC)c3)cccc2c1=O -10.5%
CCc1ccc2ncc3c(-c4ccc(F)cc4)nn(CC(=O)NCc4ccccc4)c3c2c1 -11.9%
Cc1nc(C)c(-c2ccc(SCC(=O)Nc3ccc(C)c(F)c3)nn2)s1 -9.4%
COc1ccc(CNC(=O)c2c(O)nc3cc(C)ccn3c2=O)cc1 0.0251%
CC(C)CC(C(=O)NCc1ccc(F)cc1)N1Cc2ccccc2C1=O (stereo unspecified) -5.75%
CCOc1ccc(-c2nc(SCC(=O)Nc3ccc(C)c(C)c3)n3[nH]c(=O)cc3n2)cc1 -0.79%
Cc1ccc(C(C)C)c(OCC(=O)Nc2ccc(C(=O)OC3CCCCC3)cc2)c1 -8.24%
CCc1nnc(SCc2nc(-c3ccc(OC)c(OC)c3)oc2C)c2cc3sc(C)cc3n12 1.95%
Cc1ccc(/C=C/c2onc(C)c2S(=O)(=O)N2CCC(C(=O)NCc3ccc(C)o3)CC2)cc1 -4.72%
COc1cccc(CNC(=O)Cc2ccc(NC(=O)N3CCCCc4ccccc43)cc2)c1OC -1.21%
Cc1ccc(CSCc2ccc(C(=O)NCCc3ccc(Cl)cc3)o2)cc1 7.61%
Cc1cc(C)cc(N2C(=O)CSC23C(=O)N(CC(=O)NCCc2ccccc2)c2ccccc23)c1 (stereo unspecified) 3.33%
CN(C(=O)c1ccc2c(c1)N(Cc1cccc(Cl)c1)C(=O)c1ccccc1S2=O)C1CCCCC1 (stereo unspecified) -5.32%
CCOC(=O)C1=C(CS(=O)(=O)c2ccc(C)cc2)NC(=O)NC1c1ccc(C(C)C)cc1 (stereo unspecified) -14.1%
COc1ccc(NC(=O)CCS(=O)(=O)c2cccc3nonc23)cc1Cl -2.7%
Cc1oc2ncn(C)c(=O)c2c1C(=O)NC(C)c1ccccc1 (stereo unspecified) 4.64%
O=C(CSC1=Nc2ccccc2N=C(c2ccc(F)cc2)C1)NCc1ccc(F)cc1 -4.36%
Cc1ccc(C)c(CN2C(=O)CSc3ccc(C(=O)NCc4ccc(F)cc4)cc32)c1 -1.16%
Cc1ccc(CSc2nc3cccnc3n2Cc2ccc(C(=O)NCCc3ccccc3)cc2)cc1 -9.24%
CCC(=O)N1c2nc(-c3ccco3)nn2C2(CCCCC2)[C@@H]2CCCC[C@@H]21 -4.96%
CCS(=O)(=O)N1CCc2cc(C(=O)Nc3cccc(Cl)c3C)ccc21 1.65%
O=C(c1cccc(Br)c1)N1CCN(Cc2cc(=O)n3nc(-c4ccccc4)sc3n2)CC1 -0.348%
COc1ccc(N2CCN(C(CNC(=O)C(=O)NCCCN(C)C)c3cccnc3)CC2)cc1 (stereo unspecified) 0.351%
CCOc1c(Cl)cc(Cl)cc1CNCCSc1nnnn1C 0.739%
O=C(Nc1cc2c(cc1C(=O)c1ccccc1Cl)OCCO2)c1ccc(Br)cc1 -3.84%
Cc1nc2c(-c3ccccc3)c(C)nn2c(C)c1CCC(=O)NCc1ccccc1Cl -12.3%
Cc1ccc(-n2nnnc2CNC(=O)c2ccccc2S(C)(=O)=O)cc1C -9.13%
COc1ccc(-c2cn3nc(N4CCCC(C(=O)Nc5ccc(C)c(C)c5)C4)sc3n2)cc1 (stereo unspecified) 4.06%
FC(F)(F)c1cc(-c2ccccc2)nc2cc(-c3ccc(Br)cc3)nn12 6.9%
O=C(CCC(=O)OCC(=O)c1ccc(Cl)cc1)Nc1ccc(Oc2ccccc2)cc1 3.41%
CCCn1cc(S(=O)(=O)c2cc(C)ccc2C)c(=O)c2cc(F)c(N3CCOCC3)cc21 0.886%
CCc1ccc2occ(CC(=O)Nc3c(C(=O)Nc4ccc(C)cc4)oc4ccccc34)c2c1 -21.9%
